# Some of the results follow. Each Rep nickase domain was tested in vitro on the same pool of single strands at 3 µM enzyme and 37 °C for 1 h; the strands have 90 letters, of which the middle is given. Uncut reads are compared with the no-enzyme pool on a log2 scale; uncut sequences lie near 0, cut ones below; no hit call is given. The scaling is to total reads; where an enzyme cuts many sequences, the uncut ones exceed 0.
# Key:
# Test in all cases: uncleaved DNA left, log2 of reads against the no-enzyme library (log2 ratio); higher = less cleavage (more negative = more Rep cleavage of the k-mer); sequences stand for … in CTCGTCCG…ACCGGAGA
# [1] = tested on: T1, Rep nickase domain of Muscovy duck circovirus
# T1 sequence (residues 1-111 of Rep, tag left off): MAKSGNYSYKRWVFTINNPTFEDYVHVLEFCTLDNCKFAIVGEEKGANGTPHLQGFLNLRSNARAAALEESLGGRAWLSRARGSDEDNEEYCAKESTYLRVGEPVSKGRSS
# Method: (§1)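 A pool of 90-nt single-stranded DNAs with seven random bases just before the constant AC of the nick site (name = the seven bases) was cut by 3 µM recombinant His6-SUMO-tagged Rep nickase domain (300 nM DNA, 50 mM HEPES pH 8.0, 50 mM NaCl, 1 mM MnCl2, 1 h, 37 °C, three replicates). Uncut DNA was amplified and sequenced.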
# [2] = tested on: T2, Rep nickase domain of banana bunchy top virus
# T2 sequence (residues 1-94 of Rep, tag left off): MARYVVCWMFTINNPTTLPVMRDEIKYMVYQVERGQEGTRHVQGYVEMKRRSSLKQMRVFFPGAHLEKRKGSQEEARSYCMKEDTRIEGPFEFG
# Method: as §1
# [3] = tested on: T3, Rep nickase domain of cabbage leaf curl virus
# T3 sequence (residues 1-116 of Rep, tag left off): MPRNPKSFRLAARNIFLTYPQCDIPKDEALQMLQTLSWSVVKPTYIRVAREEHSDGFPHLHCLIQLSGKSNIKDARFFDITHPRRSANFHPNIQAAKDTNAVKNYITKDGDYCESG
# Method: as §1
# [4] = tested on: T4, Rep nickase domain of chickpea chlorotic dwarf virus
# T4 sequence (residues 1-124 of Rep, tag left off): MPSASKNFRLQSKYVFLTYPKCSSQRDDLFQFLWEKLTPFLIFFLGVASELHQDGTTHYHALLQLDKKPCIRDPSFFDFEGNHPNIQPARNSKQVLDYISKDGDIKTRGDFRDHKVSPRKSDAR
# Method: as §1
# [5] = tested on: T5, Rep nickase domain of faba bean necrotic yellows virus
# T5 sequence (residues 1-98 of Rep, tag left off): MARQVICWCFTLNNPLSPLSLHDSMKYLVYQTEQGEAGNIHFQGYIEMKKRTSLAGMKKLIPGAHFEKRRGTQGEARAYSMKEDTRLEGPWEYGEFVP
# Method: as §1
# [6] = tested on: T6, Rep nickase domain of maize striate mosaic virus
# T6 sequence (residues 1-117 of Rep, tag left off): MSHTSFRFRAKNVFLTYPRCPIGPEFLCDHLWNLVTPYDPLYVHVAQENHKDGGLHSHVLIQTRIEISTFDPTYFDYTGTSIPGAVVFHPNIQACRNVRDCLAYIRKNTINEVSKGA
# Method: as §1
# [7] = tested on: T7, Rep nickase domain of porcine circovirus 2
# T7 sequence (residues 2-116 of Rep, tag left off): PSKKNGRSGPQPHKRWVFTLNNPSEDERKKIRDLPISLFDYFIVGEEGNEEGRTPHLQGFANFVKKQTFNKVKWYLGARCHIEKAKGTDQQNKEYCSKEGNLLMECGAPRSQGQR
# Method: as §1
# [8] = tested on: T8, Rep nickase domain of tomato golden mosaic virus
# T8 sequence (residues 1-124 of Rep, tag left off): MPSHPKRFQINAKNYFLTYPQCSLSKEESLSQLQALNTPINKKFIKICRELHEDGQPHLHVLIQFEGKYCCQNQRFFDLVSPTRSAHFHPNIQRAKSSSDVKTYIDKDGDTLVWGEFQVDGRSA
# Method: as §1
# [9] = tested on: T9, Rep nickase domain of tomato yellow leaf curl virus
# T9 sequence (residues 1-136 of Rep, tag left off): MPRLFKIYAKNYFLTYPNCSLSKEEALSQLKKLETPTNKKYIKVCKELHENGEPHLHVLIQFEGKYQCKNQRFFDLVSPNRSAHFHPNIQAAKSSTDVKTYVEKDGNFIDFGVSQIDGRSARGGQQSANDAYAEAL
# Method: as §1
# [10] = tested on: T10, Rep nickase domain of wheat dwarf virus
# T10 sequence (residues 1-137 of Rep, tag left off): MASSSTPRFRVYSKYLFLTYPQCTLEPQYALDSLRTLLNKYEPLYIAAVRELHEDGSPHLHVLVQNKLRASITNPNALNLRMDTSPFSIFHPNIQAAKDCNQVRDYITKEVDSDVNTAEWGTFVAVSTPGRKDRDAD
# Method: as §1
Sequence,uncleaved DNA left (log2) [1],uncleaved DNA left (log2) [2],uncleaved DNA left (log2) [3],uncleaved DNA left (log2) [4],uncleaved DNA left (log2) [5],uncleaved DNA left (log2) [6],uncleaved DNA left (log2) [7],uncleaved DNA left (log2) [8],uncleaved DNA left (log2) [9],uncleaved DNA left (log2) [10]
AGAGTTT,0.104,0.00315,0.196,-1.2,0.0823,0.432,-0.32,0.0934,0.125,0.0167
AACCTCG,0.0893,0.05,-0.935,-0.623,0.167,-1.18,-0.19,0.0939,0.00722,-0.0249
TCTCGAT,-0.0513,-0.22,0.0393,0.144,-0.213,0.497,-0.0906,-0.104,-0.121,-0.0291
CTCGTGC,-0.17,-0.113,-0.614,-0.741,-0.0976,-1.1,0.058,-0.246,0.00667,-0.0468
CTCTTCG,0.0114,-0.0124,-0.731,0.192,-0.0252,-0.888,0.147,0.0388,-0.0288,-0.172
AAAGGAC,0.026,0.0714,0.274,1.31,-0.0353,1.24,0.185,0.0978,-0.0191,0.116
TAGGCGT,-0.0495,-0.0933,-0.839,-0.965,-0.0529,-1,-0.208,-0.129,-0.0763,-0.191
TAATGGA,0.0434,0.0808,-1.9,-1.83,0.0777,-0.534,-0.203,-0.0916,0.0544,-0.217
CGACGAT,0.0296,0.022,0.0495,0.506,-0.0425,1.12,-0.105,-0.0254,-0.0823,-0.0615
CTTTCAT,-0.0791,0.108,0.0957,-0.833,0.0826,-0.481,-0.28,-0.0551,0.111,0.177
ACGAGAA,0.0208,-0.0993,-0.0509,0.267,-0.0207,-0.297,-0.128,-0.0966,-0.173,-0.0258
GAGAAAT,0.0907,0.0948,0.681,1.68,0.00298,1.96,-2.57,0.106,0.117,0.148
TCTCTGA,-0.105,-0.0679,0.176,-0.014,-0.0266,-0.0248,-0.0429,-0.0132,-0.109,0.0619
TAAGTCC,0.046,-0.0391,-0.0444,-2.26,0.0226,0.0748,-0.046,-0.0723,0.0498,-0.302
CAGGCCC,-0.138,-0.0708,0.00965,0.294,-0.0613,0.447,-0.0885,-0.0718,-0.125,-0.0185
TTGAGGA,0.0361,-0.0879,0.0133,0.11,0.0404,-0.467,0.0488,0.101,-0.055,-0.117
AAAACCG,-0.0567,-0.000248,-0.787,-0.299,0.0613,-1.07,0.106,-0.0345,-0.0211,-0.038
AAGCTGG,0.143,0.03,0.375,1.5,0.0422,1.37,0.249,0.166,-0.0881,0.189
AGAAGCT,0.0233,0.0526,0.13,0.472,-0.0836,0.441,0.0635,0.0709,-0.0383,0.111
CTCGAAT,0.0458,-0.0565,0.0458,-0.451,-0.131,-0.591,-1.23,-0.084,-0.135,-0.0141

Sequence,uncleaved DNA left (log2) [1],uncleaved DNA left (log2) [2],uncleaved DNA left (log2) [3],uncleaved DNA left (log2) [4],uncleaved DNA left (log2) [5],uncleaved DNA left (log2) [6],uncleaved DNA left (log2) [7],uncleaved DNA left (log2) [8],uncleaved DNA left (log2) [9],uncleaved DNA left (log2) [10]
TGGGCAC,-0.0739,0.104,0.828,1.87,-0.0898,2.15,0.162,-0.0501,0.0597,0.0664
GCCCCTT,0.3,0.15,0.422,-0.264,0.0901,0.721,-0.137,0.055,0.0975,0.245
GTGCTTA,-0.0714,0.0274,0.311,0.721,-0.138,1.6,-0.00718,0.043,0.112,0.028
ACACTGT,0.0392,-0.109,-0.521,-0.759,-0.0624,-0.891,0.099,-0.0218,-0.0843,-0.0968
AGGCCCA,0.052,0.0739,0.392,0.703,0.0301,1.91,0.0677,0.0603,-0.0411,-0.0391
GCCTGGG,-0.0716,0.00768,-0.336,-0.0288,0.0188,-0.558,0.218,-0.0407,0.0172,0.0469
AAGGATC,0.0351,-0.0477,0.198,1.24,-0.0814,1.26,0.207,0.108,-0.181,-0.0922
TCCGTGA,-0.022,0.0492,0.463,0.646,0.0169,0.395,0.095,-0.0253,0.0808,0.00105
TGGTGCT,-0.554,0.0272,-0.27,-0.652,-0.0187,-0.544,-2.79,0.00383,0.0453,-0.0419
CACTCTA,-0.166,-0.36,-0.155,-2.84,-0.0621,-0.836,-2.31,-0.0872,-0.175,-0.0796
ACGTCAT,0.0351,0.0249,-0.0899,-0.525,-0.0629,-0.307,-0.54,0.0609,0.0185,0.0872
CATGCCC,-0.0861,-9.92e-05,-0.266,-0.631,0.0323,-0.887,-0.0431,-0.11,-0.026,-0.0753
ACTATCA,-0.125,0.0212,0.0913,-0.369,0.0287,-0.000254,0.0568,-0.0619,-0.053,0.145
GAGATAT,0.127,0.148,0.857,2.03,0.121,2.22,-0.856,0.143,0.1,0.221
GTGCCCG,-0.0257,0.00193,-0.381,-0.282,0.0122,-0.478,-0.178,0.0281,0.022,-0.0102
CCTCACC,-0.0904,-0.0707,0.0476,-0.372,0.0608,-0.367,-0.0969,-0.0648,0.0177,0.131
GTTATCC,0.0235,0.113,0.347,0.913,0.0398,1.59,0.0675,0.0694,0.0512,0.0893
ACGTGTA,0.0794,-0.00781,-0.238,-0.691,-0.0519,-0.465,-0.298,0.0585,-0.0314,-0.12
CCATCTC,-0.0433,-0.00393,0.00294,-0.168,-0.0168,-0.447,0.0165,-0.0483,0.0166,-0.0875
CAGGCGG,-0.0509,0.0164,0.13,0.683,-0.125,0.0637,0.041,-0.0304,-0.0109,0.00923

Sequence,uncleaved DNA left (log2) [1],uncleaved DNA left (log2) [2],uncleaved DNA left (log2) [3],uncleaved DNA left (log2) [4],uncleaved DNA left (log2) [5],uncleaved DNA left (log2) [6],uncleaved DNA left (log2) [7],uncleaved DNA left (log2) [8],uncleaved DNA left (log2) [9],uncleaved DNA left (log2) [10]
GACCCTC,-0.0212,0.0593,0.699,1.18,-0.00233,1.52,-0.0699,0.0587,0.0775,0.0472
GTAGATA,0.0894,0.164,0.342,0.845,0.15,1.6,0.199,0.144,0.136,0.141
GGAATGC,-0.015,0.115,0.417,1.07,0.0703,0.772,0.243,0.0669,0.113,0.108
AGCGCTA,-0.031,0.0329,-0.0249,0.487,-0.0115,1.38,-0.0876,0.0823,-0.0044,0.0275
AAATGAG,0.143,0.0886,-0.615,0.139,0.337,-0.749,0.285,0.103,0.157,0.105
TCCCGGC,-0.114,-0.0417,0.177,0.195,-0.0719,-0.0358,-0.000763,-0.0326,-0.0968,-0.136
GATAATC,0.138,0.142,0.284,0.657,0.0635,0.701,0.16,0.067,0.0766,0.0948
TGCTCGC,0.143,0.165,0.238,0.471,0.0764,0.664,0.063,0.165,0.136,0.113
CGTAGTT,0.0285,0.0406,0.00468,-1.09,-0.0866,-0.0541,-0.407,-0.0189,0.00527,-0.103
AACAGAC,-0.122,-0.0449,-0.0108,0.0284,-0.0328,-0.668,0.079,-0.0988,-0.147,-0.0344
CCTCGCA,-0.00215,0.0499,-0.272,-0.939,0.128,-0.93,0.13,0.105,-0.0341,-0.011
GCTCCGC,0.0459,0.0392,-0.0832,0.068,-0.0797,-0.474,-0.0142,-0.0536,-0.0457,-0.106
AGGGATA,0.0823,0.0692,0.265,1.43,0.0468,1.65,0.122,0.229,0.0356,0.05
CGCGAAT,0.0229,-0.0253,-0.125,0.0627,-0.0145,-0.0819,-0.0689,-0.0582,-0.136,-0.0654
TGCCGCC,-0.00438,-0.0655,0.00667,-0.238,-0.131,-0.456,-0.048,-0.109,-0.0536,0.0555
CTTGCGC,-0.0187,-0.0392,-0.679,-0.204,0.203,-0.65,0.145,-0.0861,0.0601,-0.12
TGTATCT,-0.00222,0.0837,0.241,-0.817,-0.0991,0.665,-1.25,0.0104,0.0639,0.00911
GGAGGCC,0.000455,-0.0249,0.648,1.41,-0.0673,1.76,0.161,0.0253,-0.012,0.158
ATTCGGT,0.0572,-0.0829,0.21,0.652,-0.0586,0.644,-0.0425,0.0772,-0.0243,0.0354
TTTGTCT,0.0585,-0.0253,-0.192,-2.01,-0.0865,-0.941,-0.196,-0.0958,-0.0227,-0.137

# — the supplement of paper PMC7826260
